# The supplement of paper PMC10126150
# Sequences with one replicate were seen in a single cluster, so their values are uncertain.
# System: ATP
# Assay: switch fluorescence ratio, 500 uM ATP over buffer (Cy3 cluster intensity, sum of 5 cycles each) (fold (ratio)); higher = stronger signal-on switching upon ATP binding; sequences stand for … in TCGTCGGCAGCGTCAGATGTGTATAAGAGACAGTTTTTTTTTTTTTTTTTTTTTTTTT…TC
# Settings: aptamer strand: ATP DNA aptamer (quencher-CACCTGGGGGAGTATTGCGGAGGAAGG + anchor), 100 nM annealed; ATP concentration: 500 uM; one replicate
# Procedure, shortened: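 Per cluster, summed Cy3 intensity from the target cycles was divided by that from the buffer cycles to give the fluorescence ratio, then averaged per switch-domain sequence. Clusters outside 100-1000 RFU were excluded. The Cy3-labelled switching-strand clusters, on a modified Illumina MiSeq flow-cell, were annealed to 100 nM quencher-labelled ATP aptamer and imaged in selection buffer, then after 15 min with 500 uM ATP at 22 °C, for five cycles with NaOH stripping and re-annealing between them.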
# 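Further: ATP exposure 15 min at 22 °C before imaging.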
row,Sequence,switch fluorescence ratio
1,GTGGACTAGC,0.979
2,GTGGACTATG,0.974
3,GTGGACTTTT,1.02
4,GTGGAGAGAG,0.957
5,GTGGATGATG,0.985
6,GTGGCAACTG,1.21
7,GTGGCAATTG,0.939
8,GTGGCATCTG,1.03
9,GTGGCCAAAT,1.02
10,GTGGCCATAC,1.28
11,GTGGCCTCGT,1.03
12,GTGGCTCATG,0.975
13,GTGGCTGCGA,1.03
14,GTGGCTGGCA,0.985
15,GTGGCTTGGA,1.01
16,GTGGGAAATG,1.02
17,GTGGGAGCG,0.981
18,GTGGGAGGA,1.01
19,GTGGGCAACC,0.972
20,GTGGGCTTTA,1.03
21,GTGGGGCACC,0.961
22,GTGGGGCTTC,0.969
23,GTGGGTCCTT,1.02
24,GTGGGTGCGT,0.975
25,GTGGTACCAC,1.04
26,GTGGTACCGA,1.01

row,Sequence,switch fluorescence ratio
1,GTGGTATGGA,0.963
2,GTGGTCCAGC,0.984
3,GTGGTCGTTC,1.01
4,GTGGTGCTGG,1.01
5,GTGGTGTA,1.01
6,GTGGTGTGAA,1
7,GTGGTGTTTG,0.975
8,GTGTAAGT,0.971
9,GTGTAGGTGC,1.07
10,GTGTATGCGG,1.07
11,GTGTCAACAT,0.995
12,GTGTCACGTT,0.977
13,GTGTCAGTGG,0.988
14,GTGTCATCTT,0.976
15,GTGTCCGGTT,1.05
16,GTGTCTAAAA,0.985
17,GTGTCTCTTA,1.08
18,GTGTCTTTGC,0.952
19,GTGTGAATTT,1.02
20,GTGTGACTGC,1.03
21,GTGTGAGGGG,1.05
22,GTGTGATCCA,0.968
23,GTGTGCAGAG,1.02
24,GTGTGCAGGA,1.05
25,GTGTGCGCAG,0.984
26,GTGTGCTTTT,0.987

row,Sequence,switch fluorescence ratio
1,GTGTGGCC,0.977
2,GTGTGGTGGC,0.905
3,GTGTGTATGG,0.943
4,GTGTGTCGGG,0.993
5,GTGTGTGAGT,1.01
6,GTGTGTTGTT,0.98
7,GTGTGTTTGA,0.997
8,GTGTTAAATC,0.975
9,GTGTTAGATG,0.995
10,GTGTTCGCA,0.999
11,GTGTTCGTAT,0.97
12,GTGTTGACGA,0.973
13,GTGTTGTCAG,0.993
14,GTGTTTCTAG,0.963
15,GTGTTTGAGT,0.956
16,GTGTTTGCAC,0.99
17,GTTAAGTATT,0.955
18,GTTAATAAGG,1
19,GTTAATGCGC,1.04
20,GTTAATTGCA,1.35
21,GTTACACATT,1.03
22,GTTACATGGA,1
23,GTTACCCGTC,1
24,GTTACCTTGA,1.04
25,GTTACGACCG,1.2
26,GTTACTATTA,1.03

row,Sequence,switch fluorescence ratio
1,GTTACTGATT,1.04
2,GTTAGAATTT,1.02
3,GTTAGACCTT,1.17
4,GTTAGAGGTC,0.957
5,GTTAGAGTGC,0.986
6,GTTAGTCCCC,1.08
7,GTTAGTTGAC,1.04
8,GTTATAAATC,0.999
9,GTTATATGGC,0.971
10,GTTATCCTAT,0.995
11,GTTATCGGCA,0.964
12,GTTATGAATT,0.976
13,GTTATTGTAG,0.962
14,GTTCAATTCA,1.02
15,GTTCACTCAA,0.959
16,GTTCAGAACC,0.962
17,GTTCAGACCG,1.01
18,GTTCAGAGTG,1.02
19,GTTCAGCCTT,0.995
20,GTTCAGTTAA,1.02
21,GTTCAGTTGG,1.02
22,GTTCATCGGC,1.03
23,GTTCCGAGCA,2.87
24,GTTCCGATTT,1
25,GTTCCGGAAG,0.988
26,GTTCCGGGGG,1.12

row,Sequence,switch fluorescence ratio
1,GTTCCTGGGA,1.04
2,GTTCCTGTTG,0.978
3,GTTCGAATTT,0.997
4,GTTCGACTCG,0.988
5,GTTCGATCGA,0.963
6,GTTCGCCGAT,1.03
7,GTTCGCGGCC,1.11
8,GTTCGGCTTT,1.04
9,GTTCGGGTGT,1.06
10,GTTCGTAGGT,0.978
11,GTTCGTCTTC,0.979
12,GTTCGTGGAG,1.07
13,GTTCGTTGTC,1.04
14,GTTCTACGGA,1.01
15,GTTCTAGTA,0.976
16,GTTCTCAGGA,0.996
17,GTTCTTACCT,1.19
18,GTTCTTTTCC,1.03
19,GTTGAAAGGA,0.967
20,GTTGAAATCA,0.981
21,GTTGAAGACG,0.985
22,GTTGAAGTT,0.997
23,GTTGAATGGT,1
24,GTTGAGCTCT,0.981
25,GTTGAGCTTA,0.997
26,GTTGAGGTTG,0.975

row,Sequence,switch fluorescence ratio
1,GTTGATAAAA,1.01
2,GTTGATCGGA,1.02
3,GTTGATTTGA,0.989
4,GTTGCATTTA,1
5,GTTGCGATG,1.02
6,GTTGCGGGTG,1.01
7,GTTGCGTAT,0.948
8,GTTGCTCGAG,0.994
9,GTTGGAAAA,0.988
10,GTTGGAACAT,0.985
11,GTTGGACAAG,1.02
12,GTTGGACGGC,1.07
13,GTTGGCACAT,1.02
14,GTTGGCTACC,1.02
15,GTTGGGAATA,1.05
16,GTTGGGGCT,0.982
17,GTTGGGGTCT,0.995
18,GTTGGGTTCG,0.985
19,GTTGGTCATG,0.976
20,GTTGTCACGA,1.04
21,GTTGTGAATT,1.04
22,GTTGTGAGTA,1.02
23,GTTGTTCTCT,1.14
24,GTTTAACGAT,1.03
25,GTTTAAGACT,0.984
26,GTTTAATGTC,1.01

row,Sequence,switch fluorescence ratio
1,GTTTAGGGAC,1.04
2,GTTTAGGTTG,1
3,GTTTATAGTC,0.992
4,GTTTCCATGT,1.01
5,GTTTCCCTCA,1.01
6,GTTTCGAGGC,1.11
7,GTTTCGCA,1.06
8,GTTTCTTCCA,1.02
9,GTTTGAACAA,0.981
10,GTTTGAATTC,0.97
11,GTTTGAGACT,1.04
12,GTTTGAGGAA,0.973
13,GTTTGAGTGT,0.928
14,GTTTGATGTG,1
15,GTTTGATTAA,1.05
16,GTTTGATTTG,0.956
17,GTTTGCGCGA,1.02
18,GTTTGGCCCG,0.99
19,GTTTGGCGTG,1.02
20,GTTTGGTCAA,1.23
21,GTTTGTACA,1.03
22,GTTTTACAGG,1.04
23,GTTTTACATG,1.01
24,GTTTTAGCTC,0.944
25,GTTTTATTAC,1.05
26,GTTTTATTGG,1.01

row,Sequence,switch fluorescence ratio
1,GTTTTTAGGA,0.961
2,GTTTTTGAAG,0.981
3,GTTTTTGAT,0.971
4,TAAAAAAACC,0.963
5,TAAAACTCGA,1
6,TAAAAGAACG,1.14
7,TAAAAGGTAA,1
8,TAAAATAAGT,1
9,TAAACACGCA,1.22
10,TAAACATCGA,0.965
11,TAAACCCG,1.14
12,TAAACGAAGG,0.998
13,TAAACGAATC,0.984
14,TAAACGCATG,1.06
15,TAAACGCTGA,1.07
16,TAAACTCTTC,1.01
17,TAAAGAGACT,1.03
18,TAAAGATCAC,1.01
19,TAAAGGGCG,1.01
